These are yes or no findings as the source states them, for the method shown. In cells and extracts the contact can be indirect. Some results given as binding are weak or reduced against the parent protein; the word gives no strength.
target: RPEL1 fragment of cardiac MYOCD (aa 1–50), GFP‐tagged (mouse) (UniProt Q8VIM5); assay: co-IP; competitive binding of in vitro translated myc‐ARP5 and MEF2C‐HA to RPEL1‐GFP; which protein was precipitated is not told; western blot

Chains of the proteins cited; added tags and fusions are not shown. A line that says so, or that is headed by a name, gives the form on record, which may keep a tag or linker. Residues count along the entry.
RPEL1 fragment of cardiac MYOCD (aa 1–50), GFP‐tagged (Q8VIM5, residues 1-50): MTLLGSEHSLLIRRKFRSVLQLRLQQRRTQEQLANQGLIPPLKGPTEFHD
MBM fragment of cardiac MYOCD (aa 1–27), GFP‐tagged (Q8VIM5, residues 1-27): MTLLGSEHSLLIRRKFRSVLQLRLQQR
RPEL2 fragment of cardiac MYOCD (aa 51–84), GFP‐tagged (Q8VIM5, residues 51-84): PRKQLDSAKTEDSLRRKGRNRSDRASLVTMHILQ
RPEL3 fragment of cardiac MYOCD (aa 85–127), GFP‐tagged (Q8VIM5, residues 85-127): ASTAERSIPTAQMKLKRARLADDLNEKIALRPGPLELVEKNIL
UniProt Q8CFN5: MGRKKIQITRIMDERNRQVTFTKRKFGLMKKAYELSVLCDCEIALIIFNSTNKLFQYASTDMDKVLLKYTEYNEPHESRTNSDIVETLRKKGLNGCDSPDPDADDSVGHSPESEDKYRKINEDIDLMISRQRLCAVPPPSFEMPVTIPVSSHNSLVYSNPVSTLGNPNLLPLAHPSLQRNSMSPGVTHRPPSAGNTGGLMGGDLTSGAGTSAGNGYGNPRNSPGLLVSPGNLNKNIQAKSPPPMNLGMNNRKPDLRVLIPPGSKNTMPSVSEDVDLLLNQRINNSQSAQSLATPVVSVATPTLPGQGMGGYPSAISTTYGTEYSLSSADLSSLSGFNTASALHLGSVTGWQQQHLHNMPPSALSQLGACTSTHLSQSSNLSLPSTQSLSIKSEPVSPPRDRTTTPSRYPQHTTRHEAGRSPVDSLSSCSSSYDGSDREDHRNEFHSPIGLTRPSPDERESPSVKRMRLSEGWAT
UniProt Q9H9F9: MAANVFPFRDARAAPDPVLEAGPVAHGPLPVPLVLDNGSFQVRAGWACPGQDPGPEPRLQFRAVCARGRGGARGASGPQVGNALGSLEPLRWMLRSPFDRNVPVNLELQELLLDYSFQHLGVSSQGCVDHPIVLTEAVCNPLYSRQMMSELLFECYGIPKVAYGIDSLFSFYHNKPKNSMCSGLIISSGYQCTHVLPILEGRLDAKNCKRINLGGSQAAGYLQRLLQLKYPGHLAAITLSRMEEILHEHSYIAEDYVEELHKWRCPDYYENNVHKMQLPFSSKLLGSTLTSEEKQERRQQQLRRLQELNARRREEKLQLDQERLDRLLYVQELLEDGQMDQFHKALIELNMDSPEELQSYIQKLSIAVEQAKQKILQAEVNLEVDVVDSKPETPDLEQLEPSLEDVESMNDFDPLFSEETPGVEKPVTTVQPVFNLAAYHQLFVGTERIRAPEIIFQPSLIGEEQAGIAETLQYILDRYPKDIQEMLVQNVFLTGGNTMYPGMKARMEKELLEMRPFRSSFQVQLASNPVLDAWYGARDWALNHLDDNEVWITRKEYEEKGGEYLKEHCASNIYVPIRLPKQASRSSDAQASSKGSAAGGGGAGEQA

binding | Substance
binds | MEF2C‐HA (myocyte enhancer factor 2C, HA‐tagged) (from UniProt Q8CFN5 1-474)
binds | myc‐ARP5 (actin‐related protein 5, myc‐tagged) (from UniProt Q9H9F9 1-607)

target: FLAG‐tagged ARP5 (actin‐related protein 5) (human) (UniProt Q9H9F9); assay: co-IP; in vitro translated proteins (wheat germ) mixed in binding buffer (0.1% NP‐40, 10% glycerol, 50 mM imidazole, protease inhibitors in 0.5× PBS), incubated with FLAG‐Affinity Gels for 6 h; FLAG‐ARP5 or its fragments held; washed with 1% Triton X‐100, 0.1% sodium deoxycholate, 150 mM KCl, 20 mM Tris–HCl pH 6.8; western blot

binding | Substance
binds | MBM fragment of cardiac MYOCD (aa 1–27), GFP‐tagged (from UniProt Q8VIM5 1-27) (domain or fragment)
binds | RPEL1 fragment of cardiac MYOCD (aa 1–50), GFP‐tagged (from UniProt Q8VIM5 1-50) (domain or fragment)
binds weakly | RPEL2 fragment of cardiac MYOCD (aa 51–84), GFP‐tagged (from UniProt Q8VIM5 51-84) (domain or fragment)
no binding | RPEL3 fragment of cardiac MYOCD (aa 85–127), GFP‐tagged (from UniProt Q8VIM5 85-127) (domain or fragment)
